B1: OR4K15 (parent)
chain: GUUAACGGUCAUAGGCCAUGGAAACUAGGAGCACCAUUUCGCUGCCAGUGAAGAAAUGAACAAAGAAAAUCUGGGCCAGGCAGGCAUCAAAAGAAAUAGUCUUGCGCUCAACCAGAAAGUCUGUAAUCAUUUUAAGGGUA

The values below come from the RNAGym collection of RNA variant scans (doi:10.7554/elife.90254).

The source gives no read counts; variants with many changes may rest on few reads.

In the data set the parent is B1. Nature of the data set: self-cleavage, relative activity (ratio to wild type); higher = more cleavage; in vitro, sequencing; the parent is a self-cleaving ribozyme.
For GUUAACGGUCAUAGGCCAUGGAAACUAGGGGCACCAUUUCGCUGCCAGUGAGGAAACGAACAAAGAAAAUCUGGGCCAGGCAGGCAUCAAAAGAAAUAGUCUUGCGCUCAACCAGGAAGUCUGUAAUCAUUUUAAGGGUA, the self-cleavage turned out to be 0.56.

In the case of GUUAACGGUCAUAGGCCAUGGAAACUAGGGGCACCAUUUCGCUGCCGGUGAAGAAAUGAACAAAGAAAAUCUGGGCCAGGCAGGCAUCAAAAGAGAAAGUCUUGCGCUCAACCAGAAAGUCUGUAAUCAUUUUAAGGGUA, the self-cleavage was 0.81.

As to GUUAACGGUCAUAGGCCAUGGAAACUAGAAGCACCAUUUCGCUGCCAGUGAAGAAAUGAACAGAGAAAAUCUGGGCCAGGCAGGCAUCAAAAGAAAUAGUCUUGCGCUCAACCGGAAAGCCUGUAAUCAUUUUAAGGGUA, the self-cleavage came out at 0.06.

Turning to GUUAACGGUCAUAGGCCAUGGAAACUAGGCGCACCAUUUCGCUGCCAGUGAGGAAAUGAACAAAGAAAAUCUGGGCCAGGCAGGCAUCAAAAGAAAUAGUCUUGCGCCCAACCAGAAAGUCUGUAAUCAUUUUAAGGGUA, the self-cleavage amounted to 0.01.

Consider GUUAACGGUCAUAGGCCAUGGAAACUAGGGGCACCAUUUCGCUGCCAGUGAGGAAAAGAACAAAGAAAAUCUGGGCCAGGCAGGCAUCAAAAGAAAUAGUCUUGCGCUCAACCAGAAGGUCUGUAAUCAUUUUAAGGGUA, for which the self-cleavage was 0.24.

GUUAACGGUCAUAGGCCAUGGAAACUAGGGGCACCAUUUCGCUGCCAGUGAGGAAAUGAACAAAGAAAACCUGGGCCAGGCAGGCAUCAAAAGAAAUAGUCUUGCGCUCAACCAGAAAGUCUGUGAUCAUUUUAAGGGUA: the self-cleavage stood at 0.16.

Regarding GUUAACGGUCAUAGGCCAUGGAAACUAGGGGCACCAUUUCGCUGCCAGUGGAGGAAUGAACAAAGGAAAUCUGGGCCAGGCAGGCAUCAAAAGAAAUAGUCUUGCGCUCAACCAGAAAGUCUGUAAUCAUUUUAAGGGUA, the self-cleavage was 0.44.

With GUUAACGGUCAUAGGCCAUGGAAACUAGGGGCUCCAUUUCGCUGCCAGCGAAGAAAUGAACAAAGAAAAUCUGGGCCAGGCAGGCAACAAAAGAAAUAGUCUUGCGCUCAACCAGAAAGUCUGUAAUCAUUUUAAGGGUA, the self-cleavage was determined as 1.26.

As for GUUAACGGUCAUAGGCCAUGGAAACUAGGGGCUCCAUUCCGCUGCCAGUGAAGAAAUGAACAAAGAAAAUCUGGGCCAGGCAGGCAUCAAAAGAAAUAGUCUUGCGCUCAACCAGAAAGUCUGUAGUCAUUUUAAGGGUA, the self-cleavage was 0.94.

Take GUUAACGGUCAUAGGCCAUGGAAACUAGAAGCACCAUAUCGCUGCCAGUGAAGUAAUGAACAAAGAAGAUCUGGGCCAGGCAGGCAUCAAAAGAAGUAGUCUUGUGCUCAACCAGAAAGUCUGUAAUCAUUUUAAGGGUA: the self-cleavage stood at 0.27.

Take GUUAACGGUCAUAGGCCAUGGAAACUAGGGGCACCAUUUCGCUGCCUGUGAAGAAAUGAACAAAGAAAAUCUGGGCCAGGCAGGCAUCAAAGGAAAUAGUCUUGCGCACAACCAGAAAGUCUGUAAUCAUUUUAAGGGUA: the self-cleavage amounted to 0.04.

For the variant GUUAACGGUCAUAGGCCAUGGAAACUAGGGGCACCAUUUCGCUGCCAGUGAGGAAAUGAACAGAGAAAAUCUGGGCCAGGCAGGCAUCAAAAGAAAUAGUCUUGCGCUCAACCAGAAAGUCUGUAAUCAUUUUAAGGGUA, the self-cleavage amounted to 1.25.

As to GUUAACGGUCAUAGGCCAUGGAAACUAGUAGCACCAUUUCGCUGCCAGUGAAGAAACGAACGAAGAAAAUCUGGGCCUGGCAGGCAUCAAAAGAAAUAGUCUUGCGCUCAACCAGAAAGUCUGUAGUCAUUUUAAGGGUA, the self-cleavage is 0.2.

For the variant GUUAACGGUCAUAGGCCAUGGAAACUAGGGGCACCAUUUCGCUGCCGGCGAAGAAAUGAACAAAGAAAAUCUGGGCCAGGCAGGCAUCAAAAGAAAUAGUCUCGCGCUCAACCAGAAAGUCUGUAAUCAUUUUAAGGGUA, the self-cleavage turned out to be 0.51.

Regarding GUUAACGGUCAUAGGCCAUGGAAACUAGGGGCACCAUUUCGCUGCCGGUGAAGAAAUGAACAAAGAAAAUCUGGGCCUGGCAGGCAUCAAAAGAAAUAGUCUUGCGCUCAACCAGAAAGUCUGUAAUCAUUCUAAGGGUA, the self-cleavage turned out to be 0.47.

Consider GUUAACGGUCAUAGGCCAUGGAAACUAGGGGCUCCAUUUCGCUGCCAGUGAAGAAAUGAACAAAGAAAAUCAGGGCCAGGCAGGCAUCAAAAGAAAUAGUCAUGCGCUCAACCAGAGAGUCUGUAAUCAUUUUAAGGGUA, for which the self-cleavage is 0.16.

As to GUUAACGGUCAUAGGCCAUGGAAACUAGUAGCACCGUUUCGCUGCCAGUGAAGAAGUGAACAAAGAAAAUCUGGGCCAGGCAGGAGUCAAAAGAAAUAGUCUUGCGCUCAACCAGAAAGUCUGUAAUCAUUUUAAGGGUA, the self-cleavage was determined as 0.88.

As to GUUAACGGUCAUAGGCCAUGGAAACUAGGGGCACCUUUUCGCUGCCAGUGAAGAAAUGAACAAAGAAAAUCUGGGCCAGGCAGGCAUCAAAAGAAAUAGUCUUGCGCUCAACCCGAAAGUCUGUAAUCAUUUUAAGGGAA, the self-cleavage worked out at 0.03.

Regarding GUUAACGGUCAUAGGCCAUGGAAACUAGAAGCACCAUUUCGCUGCCAGUGAAGAAAUGAACAUAGAAAAUUUGGGCCAGGCAGGCAUCAAAAGAAAUAGUCUUGCUCUCAACCAGAAAGUCUGUAAUCAUUUUAAGGGUA, the self-cleavage came out at 0.05.

Regarding GUUAACGGUCAUAGGCCAUGGAAACUAGAAGCACCAUUUCGCUGCCAGUGAAGAAAUGAACAAGGAAAAUCUGGGCCUGGCAGGCAUCAAAAGAAAUAGUCUUGCGCUCAGCCAGAAAGUCUGUAAUCAUUUUAAGGGUA, the self-cleavage was determined as 0.03.
